{"source": "PubChem BioAssay AID1347073", "about": "(National Center for Advancing Translational Sciences (NCATS), 2019)", "note": "In all, about 45,000 compounds went through this assay and about 200 (0.44%) were called active. The shares of active, inactive and inconclusive entries below differ from those in the screen. Calls come from the whole dose curve; as a rule, active = well fitted activation curve with a large enough effect; inconclusive = small, poorly fitted or top-dose-only effect; inactive = no such curve, though single readings can be large or run the other way. Where the call is inconclusive, the potency comes from a doubtful curve fit.", "data": [{"experiment": "qHTS of TDP-43 Inhibitors: NCGC Sytravon Library Screen; note: nearly all actives have a fitted effect of over 55% in size; note: potency is the fitted concentration of half-maximal effect; tags give direction and shape of the fitted curve; for growth rescue (activation): 0% is about no effect", "settings": "yeast TDP-43 toxicity rescue, BacTiter-Glo growth, 24 h; growth rescue (activation): at 46.1 µM (top of the series)", "in_short": "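TDP-43-expressing yeast, pregrown in raffinose, seeded at OD600 0.02 in galactose medium with compound for 24 hr at 30 deg C. Growth read by BacTiter-Glo luminescence, so rescue of toxicity appears as activation.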", "values": [{"compound": "CC1Cc2ccccc2N1c1ncnc(N)c1[N+](=O)[O-]", "note": "(configuration not stated)", "Potency": "inconclusive: 11.2 µM [activator, partial curve, poor fit]"}, {"compound": "Cc1ccc(NC(=O)CSc2nnc(CCC(=O)O)c(=O)[nH]2)cc1", "Potency": "inconclusive: 17.8 µM [activator, single point]"}, {"compound": "CSc1nc2sc3c(c2c(=O)n1-c1ccc(C)cc1)CCCC3", "Potency": "inactive"}, {"compound": "O=C1CCCC(=O)C1Sc1ccc(Cl)cc1", "Potency": "inconclusive: 20 µM [activator, single point]"}, {"compound": "Cc1ccc(C(=O)c2cc([N+](=O)[O-])ccc2N2CCOCC2)cc1C", "Potency": "active: 22.4 µM"}, {"compound": "COc1ccc2c(c1)c(C(=O)O)c(C)n2-c1ccccc1", "Potency": "inconclusive: 3.55 µM [activator, full curve, poor fit]"}, {"compound": "Cc1ccc(C)c(N2CCN(c3nc4ccccc4n4nnnc34)CC2)c1", "Potency": "inactive"}, {"compound": "CC1(C(=O)NCc2cccc(Cl)c2)Cc2c(-c3ccccc3)ccnc2O1", "note": "(configuration not stated)", "Potency": "inconclusive: 35.5 µM [activator, single point]"}, {"compound": "CC1CCCCN1C(=O)c1cc(-c2ccc3c(c2)OCO3)on1", "note": "(configuration not stated)", "Potency": "inconclusive: 8.91 µM [activator, partial curve, poor fit]"}, {"compound": "COc1cc2c(cc1OC)CN(c1ccc([N+](=O)[O-])cc1Cl)CC2", "Potency": "inconclusive: 12.6 µM [activator, partial curve, poor fit]"}, {"compound": "O=C(C1=NN[C@@H]2C(=O)N(c3cccc(C(F)(F)F)c3)C(=O)[C@H]12)c1ccc2ccccc2n1", "Potency": "inconclusive: 2 µM [activator, partial curve, poor fit]"}, {"compound": "O=[N+]([O-])c1ccccc1S(=O)(=O)NCc1ccco1", "Potency": "inactive"}, {"compound": "c1ccc(-c2csc3ncnc(NCC4COc5ccccc5O4)c23)cc1", "note": "(configuration not stated)", "Potency": "inconclusive: 20 µM [activator, partial curve, poor fit]"}, {"compound": "O=C(CC12CC3CC(CC(C3)C1)C2)Nc1ccc(C(=O)O)cc1", "Potency": "inconclusive: 2.51 µM [activator, full curve, poor fit]"}, {"compound": "OC(c1cccc(Cl)c1)c1nc(-c2cccc3cccnc23)cs1", "note": "(configuration not stated)", "Potency": "inconclusive: 15.8 µM [activator, single point]"}, {"compound": "CCC(=O)Nc1cccc(NC(=S)NC(=O)c2cccc(C)c2)c1", "Potency": "inconclusive: 14.1 µM [activator, single point]"}, {"compound": "O=C(COC(=O)Cc1ccc(Cl)cc1Cl)Nc1ccc(OC(F)F)cc1", "Potency": "inconclusive: 17.8 µM [activator, partial curve, poor fit]"}, {"compound": "Cc1ccc(CCc2nnc(SCC(=O)Nc3ccccc3Cl)n2-c2ccccc2)o1", "Potency": "inconclusive: 35.5 µM [activator, partial curve, poor fit]"}, {"compound": "Cn1c(N)c(C(=O)COC(=O)/C=C/c2ccc(Cl)c(Cl)c2)c(=O)n(C)c1=O", "Potency": "inactive"}, {"compound": "Cc1ncsc1CCOC(=O)c1ccc(Cl)cc1", "Potency": "inconclusive: 12.6 µM [activator, partial curve, poor fit]"}, {"compound": "COc1ccccc1Oc1nc(-c2cccnc2)nc2ccccc12", "Potency": "inconclusive: 20 µM [activator, single point]"}, {"compound": "O=C(O)c1ccccc1C(=O)Nc1ccc(Oc2cccc3ccccc23)cc1", "Potency": "inconclusive: 17.8 µM [activator, partial curve, poor fit]"}, {"compound": "Cc1cccc(NC(=S)Nc2ccc(Cl)c(Cl)c2)c1", "Potency": "inconclusive: 20 µM [activator, single point]"}, {"compound": "COc1ccc(NC(=O)C2Cc3c(-c4cccc(C(C)=O)c4)ccnc3O2)cc1", "note": "(configuration not stated)", "Potency": "inconclusive: 22.4 µM [activator, single point]"}, {"compound": "CCc1ccc(NC(=S)N2CCCC(C(F)(F)F)C2)cc1", "note": "(configuration not stated)", "Potency": "inconclusive: 15.8 µM [activator, single point]"}, {"compound": "CCOC(=O)C(Cc1ccccc1)C(=O)Nc1cccc2ccccc12", "note": "(configuration not stated)", "Potency": "inconclusive: 35.5 µM [activator, single point]"}, {"compound": "Cc1ccc(C)c(N2CCN(C(=O)c3csc(C)c3C)CC2)c1", "Potency": "inconclusive: 12.6 µM [activator, partial curve, poor fit]"}, {"compound": "CC(C)COc1ccc(C(=O)N(Cc2ccc(N(C)C)cc2)Cc2ccco2)cc1", "Potency": "inconclusive: 11.2 µM [activator, partial curve, poor fit]"}, {"compound": "O=C(COc1ccc(Cl)cc1Br)NC(=O)NC1CCCC1", "Potency": "inconclusive: 17.8 µM [activator, partial curve, poor fit]"}, {"compound": "CCOC(=O)c1cnc2ccc(OC)cc2c1NCCc1ccccc1", "Potency": "inactive"}, {"compound": "Nc1c(C(=O)NC2CCCC2)c2nc3ccccc3nc2n1/N=C/c1cccnc1", "Potency": "inconclusive: 25.1 µM [activator, partial curve, poor fit]"}, {"compound": "O=C(NC(=S)Nc1cccc2cc(O)ccc12)c1ccccc1Br", "Potency": "active: 15.8 µM"}, {"compound": "CCC(=O)Nc1cccc(Br)c1", "Potency": "inconclusive: 10 µM [activator, partial curve, poor fit]"}, {"compound": "COc1cc(/C=C/c2cccc[n+]2C)ccc1OCC(=O)Nc1cccc(Cl)c1", "Potency": "inactive"}, {"compound": "CC(C)N(C(=O)CSc1nc2ccc(Cl)cc2[nH]1)c1ccccc1", "Potency": "inconclusive: 22.4 µM [activator, single point]"}, {"compound": "CS/C(=N\\S(=O)(=O)c1cccs1)Nc1ccc(Br)cc1F", "Potency": "inconclusive: 31.6 µM [activator, single point]"}, {"compound": "Cc1cc(C)n2nc(SCc3ncc(-c4ccccc4)o3)nc2n1", "Potency": "inconclusive: 14.1 µM [activator, partial curve, poor fit]"}, {"compound": "CC(O)(c1ccc(F)c(F)c1)c1nc(-c2cccc(C(=O)O)c2)cs1", "note": "(configuration not stated)", "growth rescue (activation)": "inconclusive: 57.9% [activator]"}, {"compound": "COc1cc(OC)nc(C(NC(=O)C2CCN(Cc3c[nH]c4ccccc34)CC2)c2ccc(Cl)cc2)n1", "note": "(configuration not stated)", "Potency": "inactive"}, {"compound": "Cc1ccsc1/C=N/Nc1cccc(C(=O)O)c1", "Potency": "inconclusive: 17.8 µM [activator, single point]"}, {"compound": "O=C(O)COc1ccc2c(c1)O/C(=C\\c1cccs1)C2=O", "Potency": "inconclusive: 22.4 µM [activator, single point]"}, {"compound": "O=C(Nc1cccc(F)c1)c1cccnc1NCCc1ccccc1", "Potency": "inconclusive: 15.8 µM [activator, partial curve, poor fit]"}]}]}
